Out of some 410,000 compounds screened, about 7,200 (1.8%) were called active. Inconclusive means that the source gave no clear call. Such entries were picked first, then a sample of the others. Calls follow the shape of the dose curve; as a rule, active = well fitted activation curve with a large enough effect; inconclusive = small, poorly fitted or top-dose-only effect, or another doubt; inactive = no such curve, though single readings can be large or run the other way. No potency is given beside an inconclusive call; the fits are too rough.
test: qHTS of TDP-43 Inhibitors; conditions: TDP-43 expressing yeast growth rescue, BacTiter-Glo, 24 h; growth rescue (activation): at 46.1 µM (top of the series) unless noted; also: nearly all actives have a fitted effect of over 50% in size; as to growth rescue (activation): % of control where 0% means no effect
In short: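 Galactose-induced TDP-43 yeast, OD600=0.02, compound pinned; 24 hr, 30 deg C; BacTiter-Glo luminescence for growth. Inhibitors of TDP-43 toxicity read as activators.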
Potency is read from the fitted curve at half-maximal effect; tags tell the direction and shape of the fitted curve.

SMILES	Potency	growth rescue (activation)
O=C1COc2ccc(C(=O)/C=C/c3ccccc3)cc2N1	inconclusive [activator, single point]	
COc1c(C)cc(Br)cc1C(=O)Nc1cccc(NC(=O)c2ccco2)c1	inconclusive [activator, single point]	
COc1ccccc1Cc1nc(-c2ccc(C)cc2)no1	inconclusive [activator, partial curve]	
Cc1cc(C)cc(NC(=O)C2C3C=CC4(O3)C2C(=O)N(CCN2CCCCC2)C4C(=O)NC2CCCCC2)c1 (stereo not given)	inconclusive [activator, single point]	
Cc1sc(NC(=O)CSC2=NCCS2)nc1-c1ccccc1	inconclusive [activator, single point]	
COc1ccc(NC(=O)COC(=O)c2cc(SC)ccc2Cl)c(OC)c1		inactive: 0%
COc1ccccc1-c1ccc(SCC(=O)NC2CCCCC2)nn1	inconclusive [activator, partial curve]	
Cc1[nH]c2ccccc2c1C(=O)C(=O)NCc1ccncc1	inconclusive [activator, partial curve]	
Cc1ccnc(SCC(=O)N2CCN(c3cccc(Cl)c3)CC2)n1	inconclusive [activator, single point]	
Cc1ccc(C(=O)/C=C/c2ccc3ncccc3c2)cc1	active: 12.6 µM	
C#CCSc1nccc(-c2nn(-c3ccc(C)cc3)ccc2=O)n1		inactive: -15%
N#Cc1cccc(CN2CCCN(Cc3ccc(F)cc3)S2(=O)=O)c1	inconclusive [activator, partial curve]	
Cc1cccc2sc(N(Cc3cccnc3)C(=O)CCS(=O)(=O)c3ccccc3)nc12		inactive: 2.2%
COc1ccc2c(c1)CCCC(Br)C2=O (stereo not given)	inconclusive [activator, single point]	
O=C(/C=C/c1cccs1)N1CCC2(CC1)Oc1ccc(F)cc1C(=O)C21CC(c2ccccc2)=NO1 (stereo not given)		inactive: -1.96%
COc1ccc(-c2cc(C(F)(F)F)nc(S(C)(=O)=O)n2)cc1OC	active: 10 µM	
Cc1ccc(N=Nc2[nH]c3ccccc3c2O)cc1	inconclusive [activator, full curve, poor fit]	
Cc1ccc(C(=O)O/N=C2/CC3CCC2(C)[C@@]3(C)CBr)cc1 (stereo not given in full)	inconclusive [activator, partial curve]	
Cc1nc2nc3c(cn2n1)C(=O)CC(c1ccccc1)C3 (stereo not given)		inactive: 13.9%
CN(C(=O)CSc1nc2ccc(NC(=O)COc3ccc(F)cc3)cc2s1)c1ccccc1	inconclusive [activator, single point]	
Cc1cc(OCC(=O)NNC(=S)NCC2CCCO2)cc(C)c1Cl (stereo not given)	inconclusive [activator, partial curve]	
CCCC1=C(C(=O)OCC)C(c2ccccc2OCC)NC(=O)N1C (stereo not given)	inconclusive [activator, partial curve]	
COc1cc(/C=C2\SC(=O)N(c3ccccc3Cl)C2=O)cc([N+](=O)[O-])c1O	inconclusive [activator, partial curve]	
CC(C)c1cccc(C(C)C)c1NC(=O)CNCc1ccccc1F	inconclusive [activator, partial curve]	

SMILES	Potency	growth rescue (activation)
Cn1c2ccccc2c(=O)c2cc(C#CC3=CCCCC3)ccc21		inactive: 8.54%
COc1cccc(-n2cc(CN(C)Cc3nc(Cc4cccc(F)c4)no3)cn2)c1	inconclusive [activator, single point]	
Cc1c(Cl)cccc1NC(=O)c1cc(-c2cccs2)on1		inactive: 10.9%
COc1ccc(C)cc1NC(=O)COC(=O)c1c(C)nn(-c2ccccc2)c1C	inconclusive [activator, partial curve]	
COc1cccc(COc2ccc3ccc(=O)oc3c2)c1	inconclusive [activator, single point]	
Cc1c(C(=O)N2CCC(C)CC2)c(S(=O)(=O)Nc2cccc(C#N)c2)c(C)n1C		inactive: 0%
COc1cccc(-n2nnnc2SCC(=O)NCCc2ccccc2)c1	inconclusive [activator, single point]	
Cc1cc(NC(=O)C(C)SCC(=O)OCC(=O)N(C)c2ccccc2)no1 (stereo not given)	inconclusive [activator, single point]	
Cc1cc(C(=O)CSc2cccc[n+]2[O-])c(C)n1-c1ccccc1	inconclusive [activator, single point]	
Cc1c(C(=O)N(C)C)sc2c1c(=O)n(-c1ccccc1C(F)(F)F)c(=O)n2Cc1ccccc1C#N		inactive: 0%
CC(C)Oc1ccc(C(=O)O)cc1	active: 12.6 µM	
C[C@@H]1CN([C@@H](C)CO)S(=O)(=O)c2ccc(C#Cc3cccc(F)c3)cc2O[C@H]1CN(C)S(=O)(=O)c1cn(C)cn1	inconclusive [activator, full curve, poor fit]	
COc1ccc(Cc2c(-c3ccco3)nc3ccc(Cl)cn23)c(C)c1	active: 22.4 µM	
C=CCOn1c(=O)c(=O)n(OCc2ccccc2)c2ccccc21	inconclusive [activator, single point]	
O=C(CCNc1cccc(F)c1)c1cccc([N+](=O)[O-])c1	inconclusive [activator, partial curve]	
CCNc1nc(NCC)nc(OCCOC(=O)c2ccccc2)n1	inconclusive [activator, partial curve]	
CCOc1cc2c(c3c1C(c1ccccc1)N(S(=O)(=O)c1ccc(C)cc1)C3)C(=O)C=CC2=O (stereo not given)	active: 12.6 µM	
COCCN=c1scc(-c2cc(OC)ccc2OC)n1/N=C/c1c[nH]c2ccccc12	active: 22.4 µM	
O=C(Nc1ccc(F)c(Cl)c1)C1Cc2c(-c3ccc4c(c3)OCO4)ccnc2O1 (stereo not given)		inactive: 29.1%
CC(C)(C)C(=O)N1CCN(c2c(Cl)cccc2[N+](=O)[O-])CC1	inconclusive [activator, single point]	
COc1ccc(-c2nn(-c3ccccc3)cc2C(=O)N2CCN(S(=O)(=O)c3ccccc3C#N)CC2)cc1	inconclusive [activator, partial curve]	
Oc1ccc(O)c(Cc2nc3ccccc3s2)c1	inconclusive [activator, single point]	
N#Cc1ccc(OCC(=O)N/N=C2\CCc3ccccc32)cc1		inactive: 2.38%
CC(=O)c1cccc(NC(=O)c2ccc([N+](=O)[O-])o2)c1	inconclusive [activator, single point]	

SMILES	Potency	growth rescue (activation)
CCOc1cccc(C(=O)Nc2ccc(N3CCCC3)cc2)c1		inactive: 1.23% [at 1.82 µM]
N#C/C(=C/c1cccn1-c1cccc(C(=O)O)c1)c1ccc(Cl)cc1	inconclusive [activator, single point]	
Cc1cccc(NC(=O)CNC(=O)[C@H]2O[C@@H](n3ccc(N)nc3=O)[C@H](O)[C@@H]2O)c1C	inconclusive [activator, partial curve]	
COc1ccccc1[C@H]1C(c2ccccc2)=NN(c2ccccc2)[C@@H]1CO	inconclusive [activator, single point]	
Cc1ccc(-c2cc(N)n(Cc3ccc(Cl)cc3)n2)cc1	inconclusive [activator, full curve]	
COc1cc(SC)ccc1C(=O)Nc1cccc(S(=O)(=O)NC2=NCCCCC2)c1		inactive: -6.8%
COCC(=O)N(Cc1ccccc1)c1ccccn1	inconclusive [activator, partial curve]	
CCn1cnnc1SCC(=O)c1c(N)n(C2CC2)c(=O)[nH]c1=O		inactive: -13.7%
COc1ccc(/C=C/C(=O)N2CCC(c3nc4ccccc4o3)CC2)cc1	inconclusive [activator, single point]	
CCC(CC)C(=O)N(C)c1c(C)nc2c(OCc3ccccc3OC)cccn12	inconclusive [activator, full curve]	
C/C(=N\NC(=O)c1ccccc1O)C1C(=O)c2ccccc2C1=O		inactive: -6.85%
Cc1ccc(Cn2cc(C(=O)c3ccc(C)cc3)c(=O)c3ccc(C)nc32)cc1		inactive: 25%
COc1cccc(NC(=O)c2nc(S(C)(=O)=O)ncc2Cl)c1	inconclusive [activator, single point]	
COc1ccc(Cl)cc1NC(=O)CSc1nc(C)cc(C)n1	inconclusive [activator, partial curve]	
COc1cccc(-c2nnc(NC(=O)c3ccc(Cl)s3)o2)c1	active: 10 µM	
Cc1cc(-c2ccccc2)nc(SCC(=O)c2cccc([N+](=O)[O-])c2)n1	inconclusive [activator, single point]	
O=C(/C=C\c1ccccc1OC(=O)c1ccccc1F)c1cc2ccccc2o1	active: 12.6 µM	
COc1cccc(NC(=O)CN2C(=O)COc3ccc(S(=O)(=O)N4CCCCCC4)cc32)c1	inconclusive [activator, full curve]	
O=C(Cc1cccs1)Nc1ccc(S(=O)(=O)N2CCCCC2)cc1	inconclusive [activator, partial curve]	
O=C(O)CCC(=O)c1ccc(C2CCCCCC2)cc1	active: 17.8 µM	
CN(C)S(=O)(=O)N1CCC(n2cnc3cccnc32)CC1		inactive: 4.94%
O=C(C1CCCN(S(=O)(=O)c2cccc3nsnc23)C1)N1CCc2ccccc2C1 (stereo not given)	inconclusive [activator, partial curve, poor fit]	

From PubChem BioAssay AID652104 (National Center for Advancing Translational Sciences (NCATS), 2013)
